Measured values: the supplement of paper PMC4967469

Key:
Test in all cases: Viability of human cancer cell lines after 72 h of drug (GDSC screen)
[1] = compound: CC(=O)Nc1cccc(-n2c(=O)n(C3CC3)c(=O)c3c(Nc4ccc(I)cc4F)n(C)c(=O)c(C)c32)c1 [Trametinib]; conditions: top dose 1 µM
Protocol: (§1)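 Human cancer cell lines in 384-well plates, medium with 10% serum, drug for 72 h over a 256-fold dose range (nine 2-fold or five 4-fold steps up to the top dose). Adherent lines were fixed and stained with the nucleic acid dye Syto60, suspension lines read with resazurin; signal relative to control wells, capped at 0 and 100%. One two-parameter sigmoid per drug and line, fitted in a mixed model over all curves with the slope shared within a line.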

[2] = compound: CCN1CCN(Cc2ccc(NC(=O)c3ccc(C)c(/C=C/c4cnc5[nH]ccc5c4OC)c3)cc2C(F)(F)F)CC1 [HG-6-64-1]; conditions: top dose 5.12 µM; top dose inferred
Protocol: as §1

[3] = compound: CCNC(=O)C[C@@H]1N=C(c2ccc(Cl)cc2)c2cc(OC)ccc2-n2c(C)nnc21 [I-BET-762]; conditions: top dose 20 µM; top dose inferred
Protocol: as §1

[4] = compound: CCc1cncnc1N1CCN(Cc2nc3ccc(C(F)(F)F)cc3[nH]2)CC1 [PF-4708671]; conditions: top dose 10 µM; top dose inferred
Protocol: as §1

[5] = compound: COc1cc2nccc(Oc3ccc(NC(=O)Nc4cc(C)on4)c(Cl)c3)c2cc1OC [AV-951]; conditions: top dose 0.128 µM; top dose inferred
Protocol: as §1

[6] = compound: Nc1ccccc1NC(=O)c1ccc(CNC(=O)OCc2cccnc2)cc1 [MS-275]; conditions: top dose 5 µM; top dose inferred
Protocol: as §1

[7] = compound: O=C(NC(COc1ccc2[nH]c(=O)[nH]c2c1)c1ccccc1)c1cccn(Cc2ccc(F)c(F)c2)c1=O [KIN001-244]; conditions: top dose 20 µM; top dose inferred
Protocol: as §1

Cell Line | AUC [1] | pIC50 [1] | AUC [2] | pIC50 [2] | AUC [3] | pIC50 [3] | AUC [4] | pIC50 [4] | AUC [5] | pIC50 [5] | AUC [6] | pIC50 [6] | AUC [7] | pIC50 [7]
Calu-6 (lung adenocarcinoma, adherent) | 0.201 | 8.16 | 0.771 | 5.65 | 0.858 | < 4.70 | 0.928 | < 5.00 | 0.984 | < 6.89 | 0.88 | < 5.30 | 0.898 | < 4.70
D-247MG (glioma, adherent) | 0.621 | 6.82 | 0.786 | 5.50 | 0.932 | < 4.70 | 0.962 | < 5.00 | 0.784 | 7.11 | 0.819 | 5.36 | 0.871 | < 4.70
D-263MG (glioma, adherent) | 0.331 | 7.72 | 0.761 | 5.66 | 0.974 | < 4.70 | 0.958 | < 5.00 | 0.983 | < 6.89 | 0.844 | 5.33 | 0.955 | < 4.70
D-283MED (medulloblastoma, adherent) | 0.99 | < 6.00 | 0.841 | 5.51 | 0.991 | < 4.70 | 0.976 | < 5.00 | 0.991 | < 6.89 | 0.825 | 5.58 | 0.944 | < 4.70
D-336MG (glioma, adherent) | 0.799 | 6.19 | 0.568 | 6.29 | 0.968 | < 4.70 | 0.947 | < 5.00 | 0.973 | < 6.89 | 0.956 | < 5.30 | 0.86 | < 4.70
D-392MG (glioma, adherent) | 0.608 | 6.86 | 0.673 | 5.93 | 0.913 | < 4.70 | 0.901 | < 5.00 | 0.948 | < 6.89 | 0.919 | < 5.30 | 0.913 | < 4.70
D-502MG (glioma, adherent) | 0.531 | 7.10 | 0.898 | < 5.29 | 0.945 | < 4.70 | 0.96 | < 5.00 | 0.968 | < 6.89 | 0.811 | 5.32 | 0.935 | < 4.70
D-542MG (glioma, adherent) | 0.901 | < 6.00 | 0.8 | 5.50 | 0.778 | 5.00 | 0.974 | < 5.00 | 0.982 | < 6.89 | 0.76 | 5.67 | 0.842 | 4.73
DEL (lymphoid neoplasm, suspension) | 0.969 | < 6.00 | 0.823 | 5.65 | 0.904 | 4.78 | 0.99 | < 5.00 | 0.989 | < 6.89 | 0.519 | 6.46 | 0.891 | 4.83
DG-75 (Burkitt lymphoma, suspension) | 0.953 | < 6.00 | 0.896 | < 5.29 | 0.832 | 4.89 | 0.897 | < 5.00 | 0.987 | < 6.89 | 0.782 | 5.67 | 0.917 | < 4.70
DJM-1 (skin, adherent) | 0.743 | 6.51 | 0.958 | < 5.29 | 0.986 | < 4.70 | 0.961 | < 5.00 | 0.987 | < 6.89 | 0.826 | 5.52 | 0.864 | 4.76
DMS-79 (small cell lung carcinoma, suspension) | 0.981 | < 6.00 | 0.98 | < 5.29 | 0.926 | < 4.70 | 0.943 | < 5.00 | 0.982 | < 6.89 | 0.774 | 5.64 | 0.915 | < 4.70
DMS-114 (small cell lung carcinoma, adherent) | 0.79 | 6.28 | 0.934 | < 5.29 | 0.797 | 4.96 | 0.945 | < 5.00 | 0.979 | < 6.89 | 0.974 | < 5.30 | 0.923 | < 4.70
DND-41 (T-cell leukaemia, suspension) | 0.542 | 7.10 | 0.82 | 5.60 | 0.464 | 6.00 | 0.99 | < 5.00 | 0.976 | < 6.89 | 0.617 | 6.20 | 0.842 | 4.93
DSH1 (bladder, adherent) | 0.859 | 6.11 | 0.887 | < 5.29 | 0.871 | 4.76 | 0.851 | 5.15 | 0.989 | < 6.89 | 0.537 | 6.41 | 0.937 | < 4.70
DU-4475 (breast, suspension) | 0.025 | > 8.41 | 0.746 | 5.86 | 0.793 | 5.14 | 0.923 | < 5.00 | 0.985 | < 6.89 | 0.624 | 6.19 | 0.879 | 4.85
Daudi (Burkitt lymphoma, suspension) | 0.989 | < 6.00 | 0.383 | 6.80 | 0.844 | 4.93 | 0.946 | < 5.00 | 0.985 | < 6.89 | 0.676 | 6.05 | 0.89 | 4.75
EB2 (Burkitt lymphoma, suspension) | 0.989 | < 6.00 | 0.478 | 6.55 | 0.888 | 4.73 | 0.979 | < 5.00 | 0.925 | < 6.89 | 0.967 | < 5.30 | 0.752 | 5.22

pIC50: −log10 of the molar value. IC50 is the fitted dose that halves viability relative to control wells, and lower means more sensitive; a fit beyond the top or the lowest dose is shown as a bound at that dose. AUC sums up the same curve from the lowest dose to the 256-fold higher top dose: 1 means no effect, lower means more sensitive. For part of these data: An inferred top dose was calculated from the reported fits.
